The values below come from PubChem BioAssay (NCI).

The structures appear in SMILES notation. “And” between values parts separate entries of the source, which are not always exact repeats. Identical values can stand only once.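 Five concentrations, 48 hours, 96-well plates. At the GI50, growth is halved. TGI: total growth inhibition.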

The experiment deals with NCI-H322M lung. The experiment can be described thus: inhibition of tumour cell growth, NCI panel, 48 h.

`CCOc1ccc(NCC2CC/C(=C\c3ccccc3OC)C2=O)cc1` (centres undefined) showed a TGI of 29.3 µM. Regarding `CCOC(=O)/C=C(\C(=O)OCC)n1cc(Cl)c(=O)n(CC(=O)OCC)c1=O`, the TGI amounted to 33.5 µM. `CCCCCCCC/C=C1\CCC(CN2CCOCC2)C1=O` (centres undefined) gave a TGI of 30.3 µM. As to `COC(=O)/C(C#N)=C(\N)C(Cl)(Cl)Cl`, the TGI is 18.2 µM. `COc1cc(Cc2cnc(N)nc2N)cc(OC)c1OCCCNc1ccc([N+](=O)[O-])cc1` gave a TGI of 49.5 µM. In turn, `C=CCOC(OCC=C)/C(Br)=C/C` had a TGI of over 100 µM. On the same count and under the same terms, for `Cc1c(Cl)cccc1NC(=O)/C=C/c1ccccc1` the value was over 100 µM; for `COc1cc(C(C)c2cc3c(cc2OCCNC(=O)COc2cc4c(cc2C(C)c2cc(OC)c(OC)c(OC)c2)OCO4)OCO3)cc(OC)c1OC` (centres undefined), over 100 µM; for `Cc1cc(S(=O)(=O)Nc2nncn2-c2ccc(Cl)cc2)c(S)cc1Cl`, over 10 µM.

`COc1ccc2c(c1OC)C(C(Cl)(Cl)Cl)N1CCc3cc4c(cc3C1=C2)OCO4` (centres undefined) returned a TGI of over 100 µM. As to `N#C/C(=N\Nc1ccccc1)C(=O)Nc1cc(-c2ccccc2)nn1-c1ccccc1`, the GI50 is 2.92 µM and the TGI stood at 22.4 µM. `CCCCSC1=N/C(=C\c2ccc(N(C)C)cc2)C(=O)N1` came in with a TGI of over 100 µM. `CN1CCc2c(sc3ncn(Nc4ccc(Cl)cc4)c(=N)c23)C1` yielded a TGI of over 100 µM. `O=[N+]([O-])/C=C(\CS(=O)(=O)c1ccccc1)c1ccc2c(c1)OCO2`: the TGI is over 100 µM. As to `COC(=O)CCNc1c2ccccc2nc2cccc([N+](=O)[O-])c12`, the GI50 was 0.0958 µM and 0.118 µM; the TGI was 0.788 µM and 0.979 µM. For the compound `O=C(OC1CN2CCC1CC2)N(c1ccccc1)c1ccccc1` (centres undefined), the TGI is over 100 µM. Regarding `CC(=O)O[C@H]1C(=O)[C@@]2(C)[C@H]([C@H](OC(=O)c3ccccc3)[C@]3(O)C[C@H](OC(=O)[C@H](OC(=O)OC[C@H]4COC(C)(C)O4)[C@@H](NC(=O)c4ccccc4)c4ccccc4)C(C)=C1C3(C)C)[C@]1(OC(C)=O)CO[C@@H]1C[C@@H]2O`, the GI50 is 0.053 µM and the TGI was over 33.3 µM.

Take `COc1ccc(/C(C#N)=C/c2cc(OC)c(OC)c(OC)c2)cc1`: the GI50 was 46.7 µM and the TGI was over 100 µM. `CC(C)(C)N/N=C(\C(=O)Nc1nc(=S)[nH][nH]1)C1C(=O)Nc2ccccc2S1=O` (centres undefined) came in with a TGI of over 100 µM. Still for that read-out and setting: in the case of `O=P(Nc1ccccc1)(Oc1ccccc1)N(CCCl)CCCl` (centres undefined) it was over 100 µM; in that of `COC(=O)C1=C(O)CCCC(C2CCCCC(=O)C2C(=O)OC)=C1` (centres undefined), over 100 µM.

Take `CCC1(OC(=O)CN)C(=O)OCc2c1cc1n(c2=O)Cc2cc3ccccc3nc2-1` (centres undefined): the GI50 was 0.218 µM; the TGI was 0.921 µM and 0.494 µM. In turn, `Cc1ccc(NC(=O)/C(Cc2cc(=O)oc3cc(O)ccc23)=N\NC(C)(C)C)cc1C` yielded a TGI of over 100 µM. Consider `Cc1nc(/C=C2\C(=O)C=Cc3ccccc32)c(O)o1`, for which the TGI was over 100 µM. `CN(O)C(=O)CCCC(=O)NCC(C)(C)CNC(=O)CCCC(=O)N(C)O` returned a TGI of over 100 µM. Same read-out and setting: in the case of `C=CCC1(C(=O)OC(C)(C)C)C(OC)=C(C(=O)OC(C)(C)C)C2C1C(C(=O)OC(C)(C)C)=C(OC)C2(CC=C)C(=O)OC(C)(C)C` (centres undefined) it was over 100 µM; in that of `CCCCc1ccc(Nc2nc(Cl)c3c(ncn3C3CC(Oc4ccc(C)cc4)C(COc4ccc(C)cc4)O3)n2)cc1` (centres undefined), over 100 µM. In turn, `Cc1nc2c(cc1OCc1ccccc1)C(=O)C1=C(C2=O)C2OC(=O)CC2OC1(C)C` (centres undefined) gave a TGI of 5.1 µM. As to `COc1ccc(NC(=O)c2sc3nc(C)c(C(=O)/C=C/c4cccc(OC)c4)cc3c2N)cc1`, the GI50 is 1.64 µM and the TGI stood at 15.5 µM. Turning to `CN(CCCNC(=O)c1nn(C)c2c1Cc1ccccc1-2)CCCNC(=O)c1nn(C)c2c1Cc1ccccc1-2`, the TGI stood at 29.7 µM. The same measure, in the same setting: in the case of `O=[N+]([O-])c1cc(F)ccc1S(=O)(=O)c1ccccc1` it was over 10 µM; in that of `COc1cc(NS(C)(=O)=O)ccc1NCc1c2ccccc2nc2ccccc12`, over 100 µM. On to `CN(C)CCCC1(c2ccc(F)cc2)OCc2cc(-c3cc4ccccc4s3)ccc21` (centres undefined), for which the GI50 was 1.68 µM and the TGI amounted to 3.06 µM. Taken in the same sequence, the figures for `Cc1nc2ccccn2c1NC(=O)NNC(=S)Nc1ccc(F)cc1` were over 100 µM and over 100 µM. `Cc1ccc(S(=O)(=O)OC(COC(=O)c2ccccc2)C(OS(=O)(=O)c2ccc(C)cc2)C(OS(=O)(=O)c2ccc(C)cc2)C(COC(=O)c2ccccc2)OS(=O)(=O)c2ccc(C)cc2)cc1` (centres undefined) yielded a TGI of over 100 µM. Still for that read-out and setting: in the case of `COC(=O)C1=C(C(=O)OC)C(N(C)C)C(C(=O)OC)=C(C(=O)OC)S1` it was over 100 µM. Compound `COC(=O)C(=O)C(C(=O)C(=O)Nc1ccccc1OC)c1nc2ccc([N+](=O)[O-])cc2[nH]c1=O` (centres undefined) gave a TGI of over 100 µM.

For `Cc1nc2ccc(F)cc2c(Cl)c1CCCl`, the TGI is over 100 µM. On to `COc1ccc2c(c1)NC1(O)c3ccccc3C(=O)C21O` (centres undefined), for which the TGI is over 100 µM.

`O=C(c1cccnc1)N1N=C(c2ccccc2)CC1(O)c1cc(F)c(Cl)cc1Cl` (centres undefined) displayed a TGI of over 100 µM. `CCCCCCCCCCCCCCCCOP(=O)([O-])OCC[N+](C)(C)C`: the GI50 was 4.62 µM; the TGI was 17.8 µM and 45.7 µM.

The compound `COC(=O)c1ccccc1/C=C1\Cc2ccc3c(c2C1=O)CCCC3` showed a TGI of over 100 µM. Turning to `COC(=O)c1c(C)cccc1C1CN=NC12Cc1cc(C)cc(C)c1C2=O` (centres undefined), the TGI was over 100 µM. In turn, `CCN(CC)CCn1c(=O)c2c(C)c3oc4ccccc4oc3c(C)c2c1=O` registered a TGI of over 100 µM.

In turn, `C=CC(C)C1(CCCOCc2ccccc2)C(=S)N2CCC3(CC24CCCC14)OCCO3` (centres undefined) showed a TGI of over 100 µM. With `Cc1ccc2c(c1)C(=O)c1c-2c(OCCCN(C)C)nc2ccccc12`, the GI50 is 2.36 µM and the TGI was 12.3 µM. In turn, `COc1ccc(NC(C(N)=O)c2cc3cc(Br)ccc3nc2Cl)cc1` (centres undefined) had a TGI of over 100 µM.

In turn, `COC(=O)[C@@H](C)[C@H]1CC[C@@](C)(CCC2=C(C)CC3C=C(C)CCC3C2(C)C)OO1` (some centres undefined) showed a TGI of 3.1 µM. With `C[C@H]1COCCN1c1cc(C2(S(=O)(=O)C3CC3)CC2)nc(-c2ccc(NC(=S)NCCO)cc2)n1`, the GI50 is 0.0422 µM and the TGI was determined as 32.4 µM. For `C1CN(P2(N3CC3)=NP(N3CC3)(N3CC3)=NP(N3CC3)(N3CC3)=N2)CCO1` (centres undefined), the TGI was over 100 µM. `CCSc1nc(=S)n(-c2ccccc2)c(C)c1C(C)=O` displayed a TGI of over 100 µM. Still for that read-out and setting: for `O=C(Nc1ccccc1-c1nn(CN2CCNCC2)c(=S)n(CN2CCNCC2)c1=O)C(F)(F)F` the value was 49.9 µM. With `CCCCCCCC(=O)SCC/C=C/[C@@H]1CC(=O)NCc2nc(cs2)C2=N[C@@](C)(CS2)C(=O)N[C@@H](C(C)C)C(=O)N1`, the GI50 is 0.0336 µM.

In turn, `C=CC(=O)N1C/C(=C\c2ccc([N+](=O)[O-])cc2)C(=O)/C(=C/c2ccc([N+](=O)[O-])cc2)C1` gave a TGI of 2.19 µM. In turn, `COC(=O)CNC(=O)CCC(C)[C@H]1CCC2C3C(C[C@H](OC(C)=O)[C@@]21C)[C@@]1(C)CCC2(C[C@H]1C[C@H]3OC(C)=O)OOC1(CC[C@]3(C)C4C[C@H](OC(C)=O)[C@@]5(C)C(CC[C@@H]5C(C)CCC(=O)NCC(=O)OC)C4[C@H](OC(C)=O)C[C@@H]3C1)OO2` (some centres undefined) registered a TGI of over 50 µM. In turn, `O=C(O)/C(=C\c1ccc(O)cc1)c1cccc2ccccc12` came in with a TGI of over 100 µM. Compound `CCCOP(=O)(OCCC)OC(C(F)(F)F)C(F)(F)F` gave a TGI of over 100 µM. In turn, `CCCCCCCCCCCCCCCCCCNC(=S)/N=C/c1c(O)c2ccccc2[nH]c1=O` came in with a TGI of 36.2 µM. The same measure, in the same setting: for `CO/N=C(\C([O-])=N\[n+]1cnn(CC(=O)OC(C)(C)C)c1)c1csc(NC(c2ccccc2)(c2ccccc2)c2ccccc2)n1` the value was over 10 µM; for `O=c1c2cnccc2cc2c3ccccc3ccn12`, over 100 µM. With `c1ccc(SC23C4C5C6C4C2C6C53)nc1` (centres undefined), the TGI was over 100 µM.

In the case of `Cc1ccc(S(=O)(=O)C2=c3nc4ccccc4cc3=C3C(=O)c4ccccc4C(=O)C32)cc1` (centres undefined), the TGI is over 100 µM. On the same count and under the same terms, in the case of `OC12c3ccccc3C1CCCCCCCCCC21OCCO1` (centres undefined) it was over 100 µM; in that of `O=C(N/N=C\c1cccc2ccccc12)Nc1cccc2ccccc12`, over 100 µM. Take `CC(=O)/C=C/C1=C(c2csc3ccccc23)c2ccccc2CC1`: the GI50 is 23.5 µM and the TGI was 86.4 µM. Compound `COC(=O)C1CCC(=O)N1C(c1cc(OC)c(OC)c(OC)c1)c1cccc2ccccc12` (centres undefined) came in with a TGI of over 100 µM. On the same count and under the same terms, in the case of `CCOC(=O)[C@@]1(C)CC(O)C(=O)N1C` (some centres undefined) it was over 100 µM; in that of `C#C[C@@]1(O)CCCC2=CC3(CC[C@]21C)SCCS3`, over 100 µM.

Take `COC(=O)Nc1nc2ccc(C(=O)c3ccccc3)cc2[nH]1`: the GI50 was 0.583 µM and the TGI was over 100 µM. Take `COC1CCC(OC)C(C2(C3CC(OC)CCC3OC)OC(=O)c3ccccc32)C1` (centres undefined): the TGI is over 100 µM. Still for that read-out and setting: in the case of `CC(C)(C)NC(=O)/C(=C\Sc1ccccc1)c1ccccc1` it was over 100 µM; in that of `O=C1CNC(=O)c2[nH]cnc2N1`, over 100 µM. Consider `C[n+]1c2ccccc2nc2ccccc21`, for which the GI50 is 7.27 µM and the TGI was determined as 21.5 µM. For `C=C1C(=O)O[C@H]2[C@H]1CC/C(Cn1cc(-c3ccc(F)cc3)nn1)=C\CC[C@@]1(C)O[C@@H]21`, the GI50 is 4.39 µM and the TGI worked out at 17.2 µM. Compound `O=S(=O)(N=NC=C1c2ccccc2N(O)c2ccccc21)c1ccc(Cl)cc1` had a TGI of over 100 µM. `Cc1ccc(N=Nc2c(O)ccc3cc(S(=O)(=O)O)ccc23)cc1`: the TGI is over 100 µM. In the case of `Cc1cc(OCCOCCC(F)(F)P(=O)(O)O)ccc1CCc1cnc2c(N)nc3cc(CCC(=O)O)ccc3c2c1`, the GI50 is over 100 µM and the TGI was over 100 µM. Regarding `COc1ccc(/C=C2\SC(=Nc3ccccc3)NC2=O)cc1`, the GI50 was 44.7 µM and the TGI is over 100 µM. `Cn1c2ccccc2c2cc(N3CCCC3)c3c(c21)C(=O)N(c1ccccc1)C3=O`: the TGI is over 100 µM.

The compound `COC(=O)C(Cc1c[nH]c2ccccc12)NP(=O)(O)OCC1OC(n2cc(Br)c(=O)[nH]c2=O)CC1O` (centres undefined) yielded a TGI of over 100 µM. `COC1=C(C)C(=O)C2=C(C1=O)C1C3CC4=C(C(=O)C(OC)=C(C)C4=O)C(CNC(=O)C(C)O)N3C(C#N)C(C2)N1C` (centres undefined) registered a TGI of 0.63 µM. `O=c1[nH]nc(Cc2ccccc2)n1/N=C/c1cccnc1` registered a TGI of over 100 µM.
